Positions count from the first letter of the chain named. No constants are given. Whether binding was seen depends on the method and setting. In cells and extracts the contact can be indirect. Some entries that bind do so weakly or less than the wild type. For part of these data: Tags and fused reporters may be left off the sequences shown.
Assays:
[1] = biological target: T1, FLAG-PTP1B D181A-Y46F substrate trapping mutant (full-length) (UniProt P18031); assay: co-IP; as the anti-FLAG co-IP, but cells lysed in the presence of 1 mM orthovanadate, which competes for binding at the catalytic centre; immunoblot
T1 sequence: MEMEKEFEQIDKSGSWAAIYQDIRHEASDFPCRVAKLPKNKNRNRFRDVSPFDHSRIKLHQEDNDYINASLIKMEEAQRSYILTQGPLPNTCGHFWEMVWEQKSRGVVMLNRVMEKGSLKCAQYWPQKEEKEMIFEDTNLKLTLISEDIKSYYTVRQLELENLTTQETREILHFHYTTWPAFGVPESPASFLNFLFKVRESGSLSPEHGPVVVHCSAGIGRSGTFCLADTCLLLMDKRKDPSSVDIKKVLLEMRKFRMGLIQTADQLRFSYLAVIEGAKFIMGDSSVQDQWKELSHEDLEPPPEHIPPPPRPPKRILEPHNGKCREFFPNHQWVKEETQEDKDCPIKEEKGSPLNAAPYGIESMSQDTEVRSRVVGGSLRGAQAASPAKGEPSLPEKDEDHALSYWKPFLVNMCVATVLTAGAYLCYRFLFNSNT

Protein sequences, listed by entry. Tags and fused reporters are not part of them. Lines headed by an entry give the natural chain unless they say otherwise; changes in a name come on top. Chains listed by the source or under a name are the forms on record and can include a tag or linker. Residues count along the entry.
Myc-tagged CD22 WT (P20273, residues 20-847): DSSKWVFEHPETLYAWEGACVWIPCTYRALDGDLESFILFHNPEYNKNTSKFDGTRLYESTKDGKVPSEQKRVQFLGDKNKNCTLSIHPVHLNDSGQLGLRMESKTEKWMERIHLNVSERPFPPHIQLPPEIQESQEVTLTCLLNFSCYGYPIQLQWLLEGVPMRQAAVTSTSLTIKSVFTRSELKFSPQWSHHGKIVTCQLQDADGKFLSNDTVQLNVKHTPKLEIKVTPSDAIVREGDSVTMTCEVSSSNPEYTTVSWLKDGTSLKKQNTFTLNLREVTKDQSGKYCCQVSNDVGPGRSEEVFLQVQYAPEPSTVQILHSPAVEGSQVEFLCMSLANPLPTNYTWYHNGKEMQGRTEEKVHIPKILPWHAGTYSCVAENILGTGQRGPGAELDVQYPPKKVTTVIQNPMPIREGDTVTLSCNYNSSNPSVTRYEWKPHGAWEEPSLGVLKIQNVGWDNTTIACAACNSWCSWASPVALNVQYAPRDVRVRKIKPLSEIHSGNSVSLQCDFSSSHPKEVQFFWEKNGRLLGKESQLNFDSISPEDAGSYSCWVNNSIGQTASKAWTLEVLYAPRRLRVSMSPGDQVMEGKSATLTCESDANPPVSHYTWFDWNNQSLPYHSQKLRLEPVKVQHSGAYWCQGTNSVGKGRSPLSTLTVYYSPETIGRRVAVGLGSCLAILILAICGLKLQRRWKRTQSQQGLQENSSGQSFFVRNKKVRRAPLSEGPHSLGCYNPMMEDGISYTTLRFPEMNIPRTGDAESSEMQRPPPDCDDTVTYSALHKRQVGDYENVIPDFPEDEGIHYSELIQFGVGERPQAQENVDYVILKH
Myc-tagged CD22-Y807F mutant (P20273, form named): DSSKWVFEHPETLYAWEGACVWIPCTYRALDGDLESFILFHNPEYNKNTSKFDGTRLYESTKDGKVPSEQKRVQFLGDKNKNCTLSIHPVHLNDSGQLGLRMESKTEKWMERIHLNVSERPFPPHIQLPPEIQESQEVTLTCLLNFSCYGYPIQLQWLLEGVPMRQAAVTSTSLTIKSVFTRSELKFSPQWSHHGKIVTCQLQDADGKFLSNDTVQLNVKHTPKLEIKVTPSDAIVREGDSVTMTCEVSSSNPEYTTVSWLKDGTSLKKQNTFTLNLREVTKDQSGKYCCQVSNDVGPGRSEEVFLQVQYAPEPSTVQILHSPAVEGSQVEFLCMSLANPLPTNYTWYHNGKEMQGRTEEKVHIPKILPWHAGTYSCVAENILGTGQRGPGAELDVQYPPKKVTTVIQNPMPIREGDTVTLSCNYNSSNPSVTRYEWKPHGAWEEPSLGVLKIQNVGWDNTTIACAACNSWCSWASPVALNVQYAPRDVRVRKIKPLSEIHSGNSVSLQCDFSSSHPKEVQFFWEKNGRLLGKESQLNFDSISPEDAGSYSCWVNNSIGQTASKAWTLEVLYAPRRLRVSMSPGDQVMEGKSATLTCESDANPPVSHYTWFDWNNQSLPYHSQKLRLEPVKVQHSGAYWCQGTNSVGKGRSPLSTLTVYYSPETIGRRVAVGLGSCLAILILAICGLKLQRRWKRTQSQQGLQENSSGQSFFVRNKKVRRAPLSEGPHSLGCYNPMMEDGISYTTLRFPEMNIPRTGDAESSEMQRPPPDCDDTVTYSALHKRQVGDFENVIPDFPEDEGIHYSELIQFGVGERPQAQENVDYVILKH
UniProt Q06187: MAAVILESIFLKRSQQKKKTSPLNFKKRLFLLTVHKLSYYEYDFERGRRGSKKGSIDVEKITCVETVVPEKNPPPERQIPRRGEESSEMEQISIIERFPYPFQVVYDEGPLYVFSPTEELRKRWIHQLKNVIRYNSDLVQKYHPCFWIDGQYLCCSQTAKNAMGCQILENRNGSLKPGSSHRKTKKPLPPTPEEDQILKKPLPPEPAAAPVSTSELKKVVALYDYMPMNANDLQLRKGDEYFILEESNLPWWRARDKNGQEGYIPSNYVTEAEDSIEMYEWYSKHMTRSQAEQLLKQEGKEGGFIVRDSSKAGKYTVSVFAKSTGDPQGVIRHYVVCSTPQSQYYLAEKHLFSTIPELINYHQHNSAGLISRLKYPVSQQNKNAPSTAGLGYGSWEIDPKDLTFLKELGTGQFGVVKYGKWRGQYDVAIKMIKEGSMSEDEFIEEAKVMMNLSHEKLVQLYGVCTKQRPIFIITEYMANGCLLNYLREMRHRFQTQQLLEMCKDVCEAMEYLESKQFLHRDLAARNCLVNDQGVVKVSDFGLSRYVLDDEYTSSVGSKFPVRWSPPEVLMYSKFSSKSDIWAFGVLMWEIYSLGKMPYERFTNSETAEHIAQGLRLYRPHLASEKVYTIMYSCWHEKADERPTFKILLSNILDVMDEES
UniProt P11912, residues 33-226: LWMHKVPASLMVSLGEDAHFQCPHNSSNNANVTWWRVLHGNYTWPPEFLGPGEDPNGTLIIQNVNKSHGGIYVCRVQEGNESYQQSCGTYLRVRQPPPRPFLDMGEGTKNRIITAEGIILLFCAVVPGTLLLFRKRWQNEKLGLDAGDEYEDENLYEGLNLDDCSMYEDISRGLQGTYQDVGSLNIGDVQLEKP
UniProt Q06481, residues 32-763: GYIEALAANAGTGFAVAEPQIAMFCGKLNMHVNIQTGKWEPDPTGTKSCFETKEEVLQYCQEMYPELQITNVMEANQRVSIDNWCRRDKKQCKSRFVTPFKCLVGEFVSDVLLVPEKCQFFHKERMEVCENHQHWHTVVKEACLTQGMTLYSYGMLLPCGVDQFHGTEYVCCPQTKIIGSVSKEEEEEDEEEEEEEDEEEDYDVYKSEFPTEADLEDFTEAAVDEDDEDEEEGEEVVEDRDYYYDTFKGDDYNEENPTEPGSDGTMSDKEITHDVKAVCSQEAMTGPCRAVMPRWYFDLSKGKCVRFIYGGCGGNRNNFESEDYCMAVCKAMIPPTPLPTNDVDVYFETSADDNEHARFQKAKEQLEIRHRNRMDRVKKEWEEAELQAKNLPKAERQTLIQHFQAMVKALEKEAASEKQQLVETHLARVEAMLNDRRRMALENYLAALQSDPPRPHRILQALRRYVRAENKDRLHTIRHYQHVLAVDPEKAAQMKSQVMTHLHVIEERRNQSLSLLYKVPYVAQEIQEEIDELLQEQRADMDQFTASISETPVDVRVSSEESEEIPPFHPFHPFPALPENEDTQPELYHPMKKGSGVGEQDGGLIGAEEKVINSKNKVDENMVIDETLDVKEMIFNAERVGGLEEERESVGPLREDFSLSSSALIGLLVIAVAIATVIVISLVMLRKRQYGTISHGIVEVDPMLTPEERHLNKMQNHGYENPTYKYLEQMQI
UniProt P62993: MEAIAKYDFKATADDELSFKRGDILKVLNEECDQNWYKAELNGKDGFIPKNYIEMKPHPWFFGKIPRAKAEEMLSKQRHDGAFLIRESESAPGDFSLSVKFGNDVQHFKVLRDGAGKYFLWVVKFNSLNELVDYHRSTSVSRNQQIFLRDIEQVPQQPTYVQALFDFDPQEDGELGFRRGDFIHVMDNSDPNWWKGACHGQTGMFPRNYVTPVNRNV

[2] = biological target: T2, FLAG-PTP1B WT (protein tyrosine phosphatase 1B) (UniProt P18031); assay: co-IP; anti-FLAG M2 magnetic beads, lysates of PTP1B KO Ramos cells with inducible FLAG-PTP1B WT or trapping mutants; lysis buffer 50 mM Tris-HCl pH 8.5, 137.5 mM NaCl, 1 mM EDTA, 1% Triton X-100; 2-4 h at 8°C; immunoblot of endogenous partners; no orthovanadate
T2 sequence: T1 sequence with F46Y, A181D

[3] = biological target: T1, FLAG-PTP1B D181A-Y46F substrate trapping mutant (full-length); assay: as above
[4] = biological target: T1, FLAG-PTP1B D181A-Y46F substrate trapping mutant (full-length); assay: condition: only with 1 mM orthovanadate in the lysis buffer; co-IP; as the anti-FLAG co-IP, but cells lysed in the presence of 1 mM orthovanadate, which competes for binding at the catalytic centre; immunoblot
[5] = biological target: T3, FLAG-PTP1B D181A-Y46F Δ406-435 (truncated trapping mutant without the ER-targeting domain) (UniProt P18031); assay: co-IP; anti-FLAG M2 magnetic beads, lysates of PTP1B KO Ramos cells with inducible FLAG-PTP1B WT or trapping mutants; lysis buffer 50 mM Tris-HCl pH 8.5, 137.5 mM NaCl, 1 mM EDTA, 1% Triton X-100; 2-4 h at 8°C; immunoblot of endogenous partners; no orthovanadate
T3 sequence: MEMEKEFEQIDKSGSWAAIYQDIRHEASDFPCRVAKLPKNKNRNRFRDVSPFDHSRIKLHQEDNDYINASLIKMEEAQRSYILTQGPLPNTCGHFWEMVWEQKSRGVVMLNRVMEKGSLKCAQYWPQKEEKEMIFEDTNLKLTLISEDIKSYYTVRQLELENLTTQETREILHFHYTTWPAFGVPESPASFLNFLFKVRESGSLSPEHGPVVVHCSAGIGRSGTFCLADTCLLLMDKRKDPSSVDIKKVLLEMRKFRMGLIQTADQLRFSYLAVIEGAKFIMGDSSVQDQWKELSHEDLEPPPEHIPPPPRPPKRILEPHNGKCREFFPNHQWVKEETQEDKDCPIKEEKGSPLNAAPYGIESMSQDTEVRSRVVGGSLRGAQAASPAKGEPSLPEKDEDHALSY

[6] = biological target: T4, PTP1B, endogenous in Ramos B cells (human (endogenous in Ramos)) (UniProt P18031); assay: proximity ligation; in situ PLA in fixed, permeabilised WT against PTP1B KO Ramos B cells; probes from anti-PTP1B and anti-Igα Fab, anti-CD22 or anti-APLP2; dots per cell
T4 sequence: T1 sequence with F46Y, A181D

[7] = biological target: Myc-tagged CD22 WT (human) (UniProt P20273); assay: co-IP; anti-Myc co-IP of C-terminally Myc-tagged CD22 WT or Y-to-F mutants from PTP1B KO Ramos cells with induced FLAG-PTP1B-D181A-Y46F; immunoblot with anti-FLAG (n = 3) and anti-GRB2 (n = 1)
[8] = biological target: Myc-tagged CD22-Y807F mutant (human) (UniProt P20273); assay: as above

Substance | binding [1] | binding [2] | binding [3] | binding [4] | binding [5] | binding [6] | binding [7] | binding [8]
Bruton tyrosine kinase (BTK) (from UniProt Q06187 1-659) (enzyme) | binds | binds | binds | – | – | – | – | –
CD22 (cluster of differentiation-22), endogenous (from UniProt P20273 20-847) (receptor) | – | – | binds | no binding | no binding | – | – | –
Igα (CD79A), BCR signaling subunit α chain (from UniProt P11912 33-226) (receptor) | – | – | binds | no binding | no binding | – | – | –
amyloid-like protein 2 (APLP2) (from UniProt Q06481 32-763) | – | binds | binds | – | binds | binds | – | –
growth factor receptor-bound protein 2 (GRB2) (from UniProt P62993 1-217) | – | – | – | – | – | – | binds | no binding
